Laboratory results as given in PubChem BioAssay AID504332 (National Center for Advancing Translational Sciences (NCATS), 2011).
The campaign covered roughly 350,000 compounds. About 31,000 (8.9%) were called active. Inconclusive results, whose numbers are uncertain, are shown with a selection of clear calls. Calls come from the whole dose curve; as a rule, active = well fitted inhibition curve with a large enough effect; inconclusive = small, poorly fitted or top-dose-only effect; inactive = no such curve, though single readings can be large or run the other way. Where the call is inconclusive, the potency comes from a doubtful curve fit.

target: Histone-lysine N-methyltransferase EHMT2 (Homo sapiens) (UniProt Q96KQ7); test: qHTS Assay for Inhibitors of Histone Lysine Methyltransferase G9a; settings: G9a H3K9 monomethylation, AlphaScreen, 2 h; series mostly up to 59 µM; note: nearly all actives have a fitted effect of over 75% in size
Sequence of UniProt Q96KQ7 (Q96KQ7 whole entry, looked up): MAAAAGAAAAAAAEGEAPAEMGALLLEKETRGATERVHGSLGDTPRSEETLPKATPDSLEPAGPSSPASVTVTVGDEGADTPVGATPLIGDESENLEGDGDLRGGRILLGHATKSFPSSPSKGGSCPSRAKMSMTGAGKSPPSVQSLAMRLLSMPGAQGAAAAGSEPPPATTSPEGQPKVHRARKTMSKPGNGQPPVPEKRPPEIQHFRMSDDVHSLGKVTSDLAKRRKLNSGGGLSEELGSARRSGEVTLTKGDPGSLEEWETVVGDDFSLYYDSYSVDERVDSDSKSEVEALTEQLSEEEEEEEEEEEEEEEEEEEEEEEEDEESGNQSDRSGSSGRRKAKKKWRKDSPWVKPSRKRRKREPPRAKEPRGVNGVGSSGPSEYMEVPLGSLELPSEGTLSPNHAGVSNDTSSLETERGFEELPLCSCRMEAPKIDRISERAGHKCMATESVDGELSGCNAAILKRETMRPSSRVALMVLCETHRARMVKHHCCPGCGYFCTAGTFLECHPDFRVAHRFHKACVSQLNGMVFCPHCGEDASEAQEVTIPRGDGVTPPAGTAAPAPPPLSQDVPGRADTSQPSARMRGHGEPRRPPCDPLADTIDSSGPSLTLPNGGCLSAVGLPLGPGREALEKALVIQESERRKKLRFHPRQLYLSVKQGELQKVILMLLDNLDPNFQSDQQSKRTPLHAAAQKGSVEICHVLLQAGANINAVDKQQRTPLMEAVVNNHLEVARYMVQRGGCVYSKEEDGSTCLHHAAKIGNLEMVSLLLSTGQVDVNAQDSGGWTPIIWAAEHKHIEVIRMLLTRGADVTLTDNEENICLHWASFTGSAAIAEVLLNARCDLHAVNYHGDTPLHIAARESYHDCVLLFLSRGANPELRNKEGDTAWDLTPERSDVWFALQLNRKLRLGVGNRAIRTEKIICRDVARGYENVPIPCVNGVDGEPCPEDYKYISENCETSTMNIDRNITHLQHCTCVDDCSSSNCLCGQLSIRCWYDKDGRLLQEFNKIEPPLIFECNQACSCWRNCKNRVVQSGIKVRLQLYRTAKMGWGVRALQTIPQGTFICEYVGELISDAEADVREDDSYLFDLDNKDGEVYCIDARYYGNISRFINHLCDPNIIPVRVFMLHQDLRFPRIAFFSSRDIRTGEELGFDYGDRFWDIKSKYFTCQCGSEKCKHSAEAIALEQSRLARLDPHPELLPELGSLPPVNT
Method in brief: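 AlphaScreen detection with an anti-monomethyl H3K9 antibody quantified product after a 2 h room-temperature reaction containing 500 nM biotinylated H3K9 peptide, 20 µM SAM and 20 nM enzyme, which had been preincubated 15 min with compound.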
Potency is the fitted concentration of half-maximal effect; tags give direction and shape of the fitted curve.

Row | Structure (SMILES) | Potency
1 | CCN(CC)c1ccc(NC(=O)c2ccco2)cc1 | active: 35.5 µM
2 | O=S1(=O)C=C(SCc2ccc(Cl)c(Cl)c2)Nc2ccccc21 | inconclusive: 20 µM [inhibitor, single point]
3 | O=C(O)c1cccc([N+](=O)[O-])c1C(=O)Nc1ccc2ccccc2c1 | inconclusive: 14.1 µM [inhibitor, partial curve, poor fit]
4 | O=C(c1cccc(Cl)c1)N1CCC(=O)N(C(COCc2ccccc2)Cc2ccccc2)CC1 (centres undefined) | inconclusive: 79.4 µM [inhibitor, single point]
5 | COc1ccc(C(=O)NNC(=O)CCCCC(=O)NNC(=O)c2ccc(OC)cc2)cc1 | inconclusive: 12.6 µM [inhibitor, full curve, poor fit]
6 | COc1ccc(CCNC(=O)c2cnc3n(c2=O)CCS3)cc1OC | inconclusive: 39.8 µM [inhibitor, single point]
7 | COC(=O)/C=C/c1ccc2c(c1)OCO2 | inactive
8 | COCCNC(=O)CCCCCNS(=O)(=O)c1ccc(C)cc1 | inconclusive: 89.1 µM [inhibitor, single point]
9 | O=C(O)c1cccc(NC(=S)N/N=C/c2ccccn2)c1 | active: 50.1 µM
10 | Cc1ccc(C(CNC(=O)Nc2ccccc2)N2CCN(C)CC2)cc1 (centres undefined) | inconclusive: 79.4 µM [inhibitor, single point]
11 | O=C(NN1C(=O)/C(=C/C=C/c2ccco2)SC1=S)c1ccncc1 | active: 3.98 µM
12 | O=C(CN1C(=O)C2CC=C(Cl)CC2C1=O)NCc1ccccc1 (centres undefined) | inconclusive: 39.8 µM [inhibitor, single point]
13 | O=C(c1ccccc1)c1ccc2nc(N3CCN(C(=O)c4ccco4)CC3)c3nncn3c2c1 | inconclusive: 89.1 µM [inhibitor, single point]
14 | Cc1csc(=Nc2cccnc2)n1CC1CCCCC1 | inconclusive: 35.5 µM [inhibitor, single point]
15 | O=C(Nc1c2c(nn1-c1ccc(F)cc1)CSC2)c1ccc(S(=O)(=O)N2CCOCC2)cc1 | inconclusive: 79.4 µM [inhibitor, partial curve, poor fit]
16 | c1csc(-c2noc(CN3CCc4sccc4C3)n2)c1 | inactive
17 | CCn1cc([N+](=O)[O-])c(C(=O)Nc2nc3ccc(OC)cc3s2)n1 | inconclusive: 39.8 µM [inhibitor, single point]
18 | O=C(Cn1cnc2ccccc21)N/N=C/c1ccco1 | inconclusive: 4.47 µM [inhibitor, partial curve, poor fit]
19 | Cc1ccc(S(=O)(=O)N2c3ccccc3-c3c(ssc3=S)C2(C)C)cc1 | active: 7.08 µM
